From patent US20230134136A1 (priority 2020, published 2023)

Tested on: patients with confirmed COVID-19 infection
Settings: patients with confirmed COVID-19 infection treated with rasburicase; FIG. 6 legend

B1: rasburicase: A supplement of the uricase protein; uric acid lowering agent (protein, UniProt Q00511 2-302, looked up)
Uricase: SAVKAARYGKDNVRVYKVHKDEKTGVQTVYEMTVCVLLEGEIETSYTKADNSVIVATDSIKNTIYITAKQNPVTPPELFGSILGTHFIEKYNHIHAAHVNIVCHRWTRMDIDGKPHPHSFIRDSEEKRNVQVDVVEGKGIDIKSSLSGLTVLKSTNSQFWGFLRDEYTTLKETWDRILSTDVDATWQWKNFSGLQEVRSHVPKFDATWATAREVTLKTFAEDNSASVQATMYKMAEQILARQQLIETVEYSLPNKHYFEIDLSWHKGLQNTGKNAEVFAPQSDPNGLIKCTVGRSSLKSKL
  severity of acute kidney injury: decreased severity of acute kidney injury
